# The supplement of paper PMC8728848
# Some of the results follow.
# What was measured:
# Test in all cases: glycan array binding signal (z-score within array); higher = stronger binding
# Conditions in all cases: glycan notation: IUPAC condensed, linker removed
# [1] = target: Neu5Ac(a2-3)Gal(b1-4)GlcNAc(b1-2)[Neu5Ac(a2-3)Gal(b1-4)GlcNAc(b1-4)]Man(a1-3)[GlcNAc(b1-4)][Neu5Ac(a2-3)Gal(b1-4)GlcNAc(b1-2)[Neu5Ac(a2-3)Gal(b1-4)GlcNAc(b1-6)]Man(a1-6)]Man(b1-4)GlcNAc(b1-4)GlcNAc
# How it was run: (§1)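 Arrays were curated from the Consortium for Functional Glycomics database, 3228 in total, and kept only where the protein sequence was available. Binding is expressed as a within-array Z-score. This score was averaged across arrays of the same protein sequence at different concentrations or buffers and across linkers, and negative values can be read as non-binding.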
# [2] = target: Neu5Ac(a2-3)Gal(b1-4)GlcNAc(b1-2)[Neu5Ac(a2-3)Gal(b1-4)GlcNAc(b1-4)]Man(a1-3)[GlcNAc(b1-4)][Neu5Ac(a2-3)Gal(b1-4)GlcNAc(b1-4)Man(a1-6)]Man(b1-4)GlcNAc(b1-4)GlcNAc
# How it was run: as §1
# [3] = target: Neu5Ac(a2-3)Gal(b1-4)GlcNAc(b1-2)[Neu5Ac(a2-3)Gal(b1-4)GlcNAc(b1-6)]Man(a1-6)[Neu5Ac(a2-3)Gal(b1-4)GlcNAc(b1-2)Man(a1-3)]Man(b1-4)GlcNAc(b1-4)GlcNAc
# How it was run: as §1
# [4] = target: Neu5Ac(a2-3)Gal(b1-4)GlcNAc(b1-2)[Neu5Ac(a2-3)Gal(b1-4)GlcNAc(b1-6)]Man(a1-6)[Neu5Ac(a2-3)Gal(b1-4)GlcNAc(b1-2)Man(a1-3)][GlcNAc(b1-4)]Man(b1-4)GlcNAc(b1-4)GlcNAc
# How it was run: as §1
# [5] = target: Neu5Ac(a2-3)Gal(b1-4)GlcNAc(b1-3)Gal
# How it was run: as §1
# [6] = target: Neu5Ac(a2-3)Gal(b1-4)GlcNAc(b1-3)Gal(b1-3)GlcNAc
# How it was run: as §1
# [7] = target: Neu5Ac(a2-3)Gal(b1-4)GlcNAc(b1-3)Gal(b1-4)GlcNAc
# How it was run: as §1
# [8] = target: Neu5Ac(a2-3)Gal(b1-4)GlcNAc(b1-3)Gal(b1-4)GlcNAc(b1-2)Man(a1-3)[Neu5Ac(a2-3)Gal(b1-4)GlcNAc(b1-3)Gal(b1-4)GlcNAc(b1-2)Man(a1-6)]Man(b1-4)GlcNAc(b1-4)GlcNAc
# How it was run: as §1
# [9] = target: Neu5Ac(a2-3)Gal(b1-4)GlcNAc(b1-3)Gal(b1-4)GlcNAc(b1-3)Gal(b1-4)GlcNAc
# How it was run: as §1
# [10] = target: Neu5Ac(a2-3)Gal(b1-4)GlcNAc(b1-3)Gal(b1-4)GlcNAc(b1-3)Gal(b1-4)GlcNAc(b1-2)Man(a1-3)[Neu5Ac(a2-3)Gal(b1-4)GlcNAc(b1-3)Gal(b1-4)GlcNAc(b1-3)Gal(b1-4)GlcNAc(b1-2)Man(a1-6)]GalNAc
# How it was run: as §1
# [11] = target: Neu5Ac(a2-3)Gal(b1-4)GlcNAc(b1-3)Gal(b1-4)GlcNAc(b1-3)GalNAc
# How it was run: as §1
# [12] = target: Neu5Ac(a2-3)Gal(b1-4)GlcNAc(b1-3)Gal(b1-4)GlcNAc(b1-3)[Neu5Ac(a2-3)Gal(b1-4)GlcNAc(b1-3)Gal(b1-4)GlcNAc(b1-6)]GalNAc
# How it was run: as §1
# [13] = target: Neu5Ac(a2-3)Gal(b1-4)GlcNAc(b1-3)Gal(b1-4)GlcNAc(b1-6)[Gal(b1-3)]GalNAc
# How it was run: as §1
# [14] = target: Neu5Ac(a2-3)Gal(b1-4)GlcNAc(b1-3)Gal(b1-4)[Fuc(a1-3)]GlcNAc
# How it was run: as §1
# [15] = target: Neu5Ac(a2-3)Gal(b1-4)GlcNAc(b1-3)GalNAc
# How it was run: as §1
# [16] = target: Neu5Ac(a2-3)Gal(b1-4)GlcNAc(b1-3)[Neu5Ac(a2-3)Gal(b1-4)GlcNAc(b1-6)]GalNAc
# How it was run: as §1
# [17] = target: Neu5Ac(a2-3)Gal(b1-4)GlcNAc(b1-6)GalNAc
# How it was run: as §1
# [18] = target: Neu5Ac(a2-3)Gal(b1-4)GlcNAc(b1-6)[Gal(b1-3)]GalNAc
# How it was run: as §1
# [19] = target: Neu5Ac(a2-3)Gal(b1-4)GlcNAc(b1-6)[Neu5Ac(a2-3)Gal(b1-3)]GalNAc
# How it was run: as §1
# [20] = target: Neu5Ac(a2-3)Gal(b1-4)GlcNAc6S
# How it was run: as §1
# [21] = target: Neu5Ac(a2-3)Gal(b1-4)[Fuc(a1-3)]GlcNAc
# How it was run: as §1
# [22] = target: Neu5Ac(a2-3)Gal(b1-4)[Fuc(a1-3)]GlcNAc(b1-2)Man
# How it was run: as §1
# [23] = target: Neu5Ac(a2-3)Gal(b1-4)[Fuc(a1-3)]GlcNAc(b1-3)Gal
# How it was run: as §1
# [24] = target: Neu5Ac(a2-3)Gal(b1-4)[Fuc(a1-3)]GlcNAc(b1-3)Gal(b1-4)GlcNAc
# How it was run: as §1
# [25] = target: Neu5Ac(a2-3)Gal(b1-4)[Fuc(a1-3)]GlcNAc(b1-3)Gal(b1-4)[Fuc(a1-3)]GlcNAc(b1-3)Gal(b1-4)[Fuc(a1-3)]GlcNAc
# How it was run: as §1
# [26] = target: Neu5Ac(a2-3)Gal(b1-4)[Fuc(a1-3)]GlcNAc(b1-3)GalNAc
# How it was run: as §1
# [27] = target: Neu5Ac(a2-3)Gal(b1-4)[Fuc(a1-3)]GlcNAc(b1-6)[Gal(b1-3)]GalNAc
# How it was run: as §1
# [28] = target: Neu5Ac(a2-3)Gal(b1-4)[Fuc(a1-3)]GlcNAc(b1-6)[Neu5Ac(a2-3)Gal(b1-3)]GalNAc
# How it was run: as §1
# [29] = target: Neu5Ac(a2-3)Gal(b1-4)[Fuc(a1-3)]GlcNAc6S
# How it was run: as §1
# [30] = target: Neu5Ac(a2-3)Gal6S(b1-4)GlcNAc
# How it was run: as §1
# [31] = target: Neu5Ac(a2-3)Gal6S(b1-4)[Fuc(a1-3)]GlcNAc
# How it was run: as §1
# [32] = target: Neu5Ac(a2-3)GalNAc
# How it was run: as §1
# [33] = target: Neu5Ac(a2-3)GalNAc(b1-4)GlcNAc
# How it was run: as §1
# [34] = target: Neu5Ac(a2-3)[GalNAc(b1-4)]Gal(b1-4)Glc
# How it was run: as §1
# [35] = target: Neu5Ac(a2-3)[GalNAc(b1-4)]Gal(b1-4)GlcNAc
# How it was run: as §1
# [36] = target: Neu5Ac(a2-3)[GalNAc(b1-4)]Gal(b1-4)GlcNAc(b1-3)GalNAc
# How it was run: as §1
# [37] = target: Neu5Ac(a2-3)[Neu5Ac(a2-6)]GalNAc
# How it was run: as §1
# [38] = target: Neu5Ac(a2-6)Gal
# How it was run: as §1
# [39] = target: Neu5Ac(a2-6)Gal(b1-3)GlcNAc(b1-3)[Gal(b1-4)GlcNAc(b1-6)]Gal(b1-4)Glc
# How it was run: as §1
# [40] = target: Neu5Ac(a2-6)Gal(b1-4)Glc
# How it was run: as §1
# [41] = target: Neu5Ac(a2-6)Gal(b1-4)GlcNAc
# How it was run: as §1
# [42] = target: Neu5Ac(a2-6)Gal(b1-4)GlcNAc(b1-2)Man
# How it was run: as §1
# [43] = target: Neu5Ac(a2-6)Gal(b1-4)GlcNAc(b1-2)Man(a1-3)Man(b1-4)GlcNAc(b1-4)GlcNAc
# How it was run: as §1
# [44] = target: Neu5Ac(a2-6)Gal(b1-4)GlcNAc(b1-2)Man(a1-3)[Gal(b1-4)GlcNAc(b1-2)Man(a1-6)]Man(b1-4)GlcNAc(b1-4)GlcNAc
# How it was run: as §1
# [45] = target: Neu5Ac(a2-6)Gal(b1-4)GlcNAc(b1-2)Man(a1-3)[GlcNAc(b1-2)Man(a1-6)]Man(b1-4)GlcNAc(b1-4)GlcNAc
# How it was run: as §1
binder,measurement,setting,value
CAA (Caragana arborescens) (protein) VAVEFDTFDNPDWDPRTKHIGIDVNSIRSNKTTQWGFWNRQVADVDISYEASSKTLNVSLYYPGESYIVTDVVDLKDILPEWVRIGF,glycan array binding signal (z-score),[1],-0.248
same,glycan array binding signal (z-score),[2],-0.243
same,glycan array binding signal (z-score),[3],0.587
same,glycan array binding signal (z-score),[4],-0.246
same,glycan array binding signal (z-score),[5],-0.251
same,glycan array binding signal (z-score),[6],-0.234
same,glycan array binding signal (z-score),[7],-0.243
same,glycan array binding signal (z-score),[8],-0.193
same,glycan array binding signal (z-score),[9],-0.25
same,glycan array binding signal (z-score),[10],-0.092
same,glycan array binding signal (z-score),[11],-0.244
same,glycan array binding signal (z-score),[12],-0.239
same,glycan array binding signal (z-score),[13],-0.242
same,glycan array binding signal (z-score),[14],-0.242
same,glycan array binding signal (z-score),[15],-0.244
same,glycan array binding signal (z-score),[16],-0.252
same,glycan array binding signal (z-score),[17],-0.231
same,glycan array binding signal (z-score),[18],-0.243
same,glycan array binding signal (z-score),[19],-0.243
same,glycan array binding signal (z-score),[20],-0.249
same,glycan array binding signal (z-score),[21],-0.245
same,glycan array binding signal (z-score),[22],-0.243
same,glycan array binding signal (z-score),[23],-0.242
same,glycan array binding signal (z-score),[24],-0.243
same,glycan array binding signal (z-score),[25],-0.225
same,glycan array binding signal (z-score),[26],-0.24
same,glycan array binding signal (z-score),[27],-0.219
same,glycan array binding signal (z-score),[28],-0.236
same,glycan array binding signal (z-score),[29],-0.247
same,glycan array binding signal (z-score),[30],-0.243
same,glycan array binding signal (z-score),[31],-0.244
same,glycan array binding signal (z-score),[32],-0.243
same,glycan array binding signal (z-score),[33],-0.244
same,glycan array binding signal (z-score),[34],-0.241
same,glycan array binding signal (z-score),[35],-0.234
same,glycan array binding signal (z-score),[36],-0.205
same,glycan array binding signal (z-score),[37],-0.238
same,glycan array binding signal (z-score),[38],-0.244
same,glycan array binding signal (z-score),[39],-0.238
same,glycan array binding signal (z-score),[40],-0.243
same,glycan array binding signal (z-score),[41],-0.239
same,glycan array binding signal (z-score),[42],-0.259
same,glycan array binding signal (z-score),[43],-0.248
same,glycan array binding signal (z-score),[44],2.13
same,glycan array binding signal (z-score),[45],2.15
